According to the supplement of paper PMC11417369:
± gives the standard deviation of the averaged measurements. The list shows a part of the results.

What follows are sequences tested on PfAP2-G AP2 domain (GST-tagged) (assay: gcPBM binding intensity (ln(normalized median fluorescence intensity)); higher = stronger DNA binding).
In short: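 Probes on an Agilent 4 × 180k array were primer-extended, double-stranded and 36 bp long, taken from intergenic genomic regions, with negative controls added. GST-tagged P. falciparum DNA-binding domains from E. coli, about 25 μg on average, were applied to the array for 1 h in 1× PBS containing 1% milk, 0.2 mg/ml BSA, 0.5% salmon testes DNA and 0.03% Triton X-100. Binding intensity, obtained after Alexa488 anti-GST antibody detection and a 488 nm scan, is the highest Masliner-normalised natural-log median intensity across replicate spots of either probe orientation.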

| Sequence | gcPBM binding intensity (ln) |
| --- | --- |
| TATAATAATATTTATTGTACGATTAGATTAATTCAT [XGTACX_site612] | 11 ± 0.63 |
| CATATGATATTATTTTGTACTTATTACAAATATGAA [XGTACX_site7929] | 11.1 ± 0.64 |
| TCGTCTCAATAATTATAATAAAAAAATTCCTAAGTC [CACACA_negctrl_site338] | 9.78 ± 0.014 |
| TTATATTTCACAAATGTGCACAGATACATATATATA | 10.5 ± 0.38 |
| ATTTTCCTATTTAGTAGTACTTTTTTCTTTTTTTAA [XGTACX_site5260] | 11.4 ± 0.86 |
| TTTTTGTTTCATAAATGTACAAAAACAAACATATTT [XGTACX_site5281] | 10.7 ± 0.65 |
| TTATATGTATATATAGTGCAGAACAAAAGATTATAT [GTGCAC_site9599] | 10.4 ± 0.32 |
| TATGAATGGTTAAGTACACACATATTAATATAGGTA [CACACA_site7606] | 11.4 ± 0.98 |
| ATCAATAAATAAAATGTGCACATAATATATTAATAC | 10.5 ± 0.34 |
| AATTTTTTTTTTTTTTTTTTTTATATATGTGTGTGT [XGTACX_negctrl_site129] | 9.95 ± 0.54 |
| TTATTATCATCAAATCAAAAAATTCTTTTACCTGTT [CACACA_negctrl_site1348] | 9.62 ± 0.23 |
| TATATATATATATGTAGTACCTATAATATTAAATAC [XGTACX_site6118] | 11.2 ± 0.76 |
| AAGAAAAGAAACAAAAAAAAAAAGAAATAAAAGGAA [TGCATGCA_negctrl_site171] | 9.535 ± 0.078 |
| CTTATAAATAAAAGAAGTACATGTTAGTTCAAGTTA [XGTACX_site4183] | 11.6 ± 0.91 |
| TTGAAGAAAAAAAAATGTACATAAAAAATATATATG [XGTACX_site428] | 11.4 ± 0.67 |
| TTCTTTATTATATGCACACGTACATAAAATATATAT [CACACA_site5157] | 11.5 ± 1 |
| AAGTGTAAAAGTTACACACACAAACTTGTCATTTTT [CACACA_site4614] | 9.99 ± 0.014 |
| CAAATTTTTTATTAAACACACAAACATATATATATA [CACACA_site5122] | 10.2 ± 0.57 |
| TTTCATCTCGTCATTTCTTATATAACTATTTTATAC [CACACA_negctrl_site813] | 10 ± 0.071 |
| ATTATTGTTTATTGATTTTTGTTAAAATAGGAAATT [GTGCAC_negctrl_site181] | 9.81 ± 0.099 |
| ATTATATTTATTAATATGTATATTTAATTATATTTA [XGTACX_negctrl_site376] | 9.65 ± 0.36 |
| AAAGGAGGGAATTTTTCTAGGTGTGGAGTGCTACTC [XGTACX_negctrl_site63] | 9.98 ± 0.2 |
| TATAAAAAATATATATATAATATTATATATATATAT [TGCATGCA_negctrl_site260] | 9.65 ± 0.4 |
| ATTTTTTTTTTTTTTTGTACGAATAATATGTATGAA [XGTACX_site5318] | 11.1 ± 0.75 |
